Measurements reported in a collection of fitness landscapes (doi:10.1038/s41467-024-54723-y).
Whole data set: some 18,000 sequences, median “TetR repression strength (sort-seq, GFP reporter)” near 0.23, cut for the highest 2% near 0.68. The list shows a part of the results.

What follows are sequences tested against TetR (class B, Tn10) (UniProt P04483) (assay: TetR repression strength (sort-seq, GFP reporter) (relative to tetO2 = 1); higher = stronger repression). Details: E. coli.
Sequence of UniProt P04483 (P04483 whole entry): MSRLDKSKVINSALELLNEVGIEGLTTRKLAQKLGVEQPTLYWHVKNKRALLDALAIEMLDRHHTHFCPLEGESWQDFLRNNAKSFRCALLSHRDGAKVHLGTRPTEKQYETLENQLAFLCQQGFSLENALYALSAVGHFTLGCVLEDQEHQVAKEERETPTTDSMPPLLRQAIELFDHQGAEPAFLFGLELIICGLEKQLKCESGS
How it was run: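 Escherichia coli SIG10-MAX cells carried a low-copy plasmid library in which eight operator positions were randomized between a constitutive promoter and sfGFP, and TetR was expressed constitutively. After 5 h of growth at 37 °C in LB with 50 µg/mL chloramphenicol, 10^6 cells were FACS-sorted into 13 fluorescence bins, and each bin was Illumina-sequenced. Repression strength was the top bin index plus one minus the read-weighted mean bin, divided by the value for the unaltered operator. Across three independent transformations, only library members with ≥30 reads in every replicate and a CV ≤0.5 were averaged.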
Sequence TCCCGGTCAGTGTACGAGA has a TetR repression strength of 0.0518.
TCCCAGAAAGTTGTCGAGA was tested, and the TetR repression strength was 0.342.
For TCCCGGCAAGTGGGAGAGA, the TetR repression strength was 0.243.
TCCCACGCAGTAACGGAGA gave a TetR repression strength of 0.0156.
TCCCATGTAGTAGGGGAGA showed a TetR repression strength of 0.245.
TCCCGTGGAGTATGTGAGA gave a TetR repression strength of 0.359.
For TCCCATTCAGTAACGGAGA, the TetR repression strength was 0.239.
In the case of TCCCGCTCAGTCTGCGAGA, the TetR repression strength is reported as 0.518.
TCCCGTGCAGTGCTTGAGA showed a TetR repression strength of 0.207.
For TCCCATCGAGTGGCGGAGA, the TetR repression strength was 0.497.
With TCCCGTTCAGTTGTGGAGA the TetR repression strength was 0.203.
TCCCCGTGAGTAAGGGAGA was tested, and the TetR repression strength was 0.0601.
TCCCGTGAAGTGGCCGAGA gave a TetR repression strength of 0.346.
Work on TCCCTATAAGTTGAAGAGA yielded a TetR repression strength of 0.478.
Work on TCCCGAACAGTAGCTGAGA yielded a TetR repression strength of 0.291.
For TCCCGCTCAGTAAGCGAGA, the TetR repression strength was 0.257.
TCCCCTCAAGTTAGCGAGA gave a TetR repression strength of 0.742.
TCCCGGTGAGTGGACGAGA was tested, and the TetR repression strength was 0.496.
TCCCCGGGAGTCTTTGAGA gave a TetR repression strength of 0.311.
With TCCCGGTTAGTAGCGGAGA the TetR repression strength was 0.249.
In the case of TCCCTGTGAGTGAGGGAGA, the TetR repression strength is reported as 0.111.
For TCCCTGAGAGTGGCGGAGA, the TetR repression strength was 0.164.
With TCCCAGCAAGTTCGAGAGA the TetR repression strength was 0.176.
TCCCGGTAAGTTAATGAGA was tested, and the TetR repression strength was 0.321.
Sequence TCCCTTAAAGTCTAGGAGA has a TetR repression strength of 0.142.
For TCCCTTGTAGTAGTTGAGA, the TetR repression strength was 0.117.
For TCCCGGAGAGTCTTAGAGA, the TetR repression strength was 0.344.
TCCCACTCAGTTATTGAGA was tested, and the TetR repression strength was 0.447.
In the case of TCCCCAGTAGTGGCTGAGA, the TetR repression strength is reported as 0.19.
TCCCTTCCAGTCAGGGAGA was tested, and the TetR repression strength was 0.392.
TCCCGGGGAGTTTAGGAGA was tested, and the TetR repression strength was 0.308.
In the case of TCCCCGAAAGTTTAAGAGA, the TetR repression strength is reported as 0.347.
TCCCGTTGAGTCTTTGAGA was tested, and the TetR repression strength was 0.538.
TCCCGGGAAGTCCTCGAGA gave a TetR repression strength of 0.985.
TCCCTGTGAGTTAGCGAGA was tested, and the TetR repression strength was 0.226.
TCCCGTGGAGTTGGGGAGA showed a TetR repression strength of 0.232.
Work on TCCCATGGAGTTATGGAGA yielded a TetR repression strength of 0.545.
In the case of TCCCAGCCAGTGGGCGAGA, the TetR repression strength is reported as 0.226.
In the case of TCCCTAACAGTTTTGGAGA, the TetR repression strength is reported as 0.275.
Work on TCCCATATAGTTGGGGAGA yielded a TetR repression strength of 0.208.
Work on TCCCACAAAGTGGGAGAGA yielded a TetR repression strength of 0.255.
TCCCTGGGAGTGCGTGAGA gave a TetR repression strength of 0.341.
In the case of TCCCGAGCAGTTATAGAGA, the TetR repression strength is reported as 0.686.
In the case of TCCCCGCTAGTGGCTGAGA, the TetR repression strength is reported as 0.438.
Sequence TCCCTCACAGTGCAAGAGA has a TetR repression strength of 0.374.
For TCCCAGGCAGTCGCGGAGA, the TetR repression strength was 0.249.
TCCCTCTTAGTTGTAGAGA showed a TetR repression strength of 0.118.
In the case of TCCCACGTAGTATGGGAGA, the TetR repression strength is reported as 0.00864.
TCCCACGGAGTCGCTGAGA showed a TetR repression strength of 0.358.
Work on TCCCACCAAGTAGCGGAGA yielded a TetR repression strength of 0.104.
In the case of TCCCTCTTAGTATCAGAGA, the TetR repression strength is reported as 0.325.
Work on TCCCGTCCAGTGGCTGAGA yielded a TetR repression strength of 0.123.
TCCCCTGGAGTACGGGAGA gave a TetR repression strength of 0.0647.
Sequence TCCCAGAAAGTGCGGGAGA has a TetR repression strength of 0.143.
For TCCCGATTAGTCTGGGAGA, the TetR repression strength was 0.173.
Work on TCCCTTACAGTTTTGGAGA yielded a TetR repression strength of 0.0352.
For TCCCCGATAGTACGTGAGA, the TetR repression strength was 0.185.
For TCCCACAGAGTATGTGAGA, the TetR repression strength was 1.24.
TCCCTATGAGTACGTGAGA showed a TetR repression strength of 0.409.
Work on TCCCTGCGAGTGTGGGAGA yielded a TetR repression strength of 0.143.
With TCCCAGTTAGTTTACGAGA the TetR repression strength was 0.32.
In the case of TCCCCCAGAGTTGTAGAGA, the TetR repression strength is reported as 0.335.
TCCCCGAGAGTAAGGGAGA showed a TetR repression strength of 0.204.
For TCCCATACAGTCGCGGAGA, the TetR repression strength was 0.192.
For TCCCAGCGAGTACTCGAGA, the TetR repression strength was 0.198.
Sequence TCCCTGTCAGTCTGAGAGA has a TetR repression strength of 0.247.
TCCCGAGCAGTGCTAGAGA gave a TetR repression strength of 0.661.
TCCCGAGTAGTGGCAGAGA was tested, and the TetR repression strength was 0.209.
TCCCTGACAGTATGGGAGA gave a TetR repression strength of 0.117.
In the case of TCCCCTCTAGTCAGGGAGA, the TetR repression strength is reported as 0.496.
TCCCGCGAAGTGTAGGAGA was tested, and the TetR repression strength was 0.0797.
TCCCGCTTAGTGAGCGAGA gave a TetR repression strength of 0.201.
In the case of TCCCAGGCAGTGTAGGAGA, the TetR repression strength is reported as 0.435.
TCCCCTCTAGTAGACGAGA showed a TetR repression strength of 0.301.
Work on TCCCGGTGAGTCCAGGAGA yielded a TetR repression strength of 0.198.
For TCCCACCTAGTATCGGAGA, the TetR repression strength was 0.592.
TCCCGGGTAGTTAATGAGA was tested, and the TetR repression strength was 1.
Work on TCCCACACAGTATGGGAGA yielded a TetR repression strength of 0.296.
For TCCCCAAGAGTTTGTGAGA, the TetR repression strength was 0.0286.
Work on TCCCGAGGAGTACCGGAGA yielded a TetR repression strength of 0.408.
TCCCGTGCAGTTGGGGAGA gave a TetR repression strength of 0.314.
Sequence TCCCGGACAGTTATGGAGA has a TetR repression strength of 0.318.
Work on TCCCGGTAAGTGAGGGAGA yielded a TetR repression strength of 0.073.
For TCCCATGTAGTGGTGGAGA, the TetR repression strength was 0.202.
TCCCTTACAGTTTTTGAGA showed a TetR repression strength of 0.366.
TCCCTGTTAGTTAGAGAGA showed a TetR repression strength of 0.452.
For TCCCCGTGAGTTGGTGAGA, the TetR repression strength was 0.195.
Work on TCCCGTTGAGTCGGCGAGA yielded a TetR repression strength of 0.157.
With TCCCCGGAAGTTACGGAGA the TetR repression strength was 0.343.
Work on TCCCGGTCAGTTTCGGAGA yielded a TetR repression strength of 0.159.
Sequence TCCCTTGCAGTTTAAGAGA has a TetR repression strength of 0.259.
For TCCCAGCTAGTGTCTGAGA, the TetR repression strength was 0.283.
TCCCGCCGAGTGGAGGAGA showed a TetR repression strength of 0.0933.
TCCCAAAAAGTCTGAGAGA gave a TetR repression strength of 0.58.
Sequence TCCCGGACAGTCTACGAGA has a TetR repression strength of 0.262.
TCCCCATAAGTGATAGAGA showed a TetR repression strength of 0.522.
Sequence TCCCACTGAGTGAAGGAGA has a TetR repression strength of 0.00864.
TCCCTCGGAGTTAACGAGA showed a TetR repression strength of 0.114.
Sequence TCCCTGTCAGTGTGGGAGA has a TetR repression strength of 0.471.
TCCCTGTCAGTGGGGGAGA was tested, and the TetR repression strength was 0.229.
For TCCCGGTGAGTCAGGGAGA, the TetR repression strength was 0.228.
Sequence TCCCCTAAAGTGGCGGAGA has a TetR repression strength of 0.176.
